The source gives no read counts; variants with many changes may rest on few reads.

In the RNAGym collection of RNA variant scans (doi:10.7554/elife.90254) one finds self-cleavage data, which are given here for 56 variants.

To fix the notation:
B1: LINE1-mini (parent)
chain: GGCAGAGCUCAACACAGCGUGGCAAAGUGGCUGUGGCUAGACUGCC

Variants of B1 are the subject of this data set. Kind of data set: self-cleavage, relative activity (ratio to wild type); higher = more cleavage; in vitro, sequencing; the parent is a self-cleaving ribozyme.
GGCAGAGCUCAACACAGCUUUGCAAAGUGGCUAUGGCUAGACUGCC [G19U G21U G33A]: the self-cleavage stood at 0.09.
For GGCAGAGCUCAACACAGCUUAGCAAAAUGGCUGUGGCUAGACUGCC [G19U G21A G27A], the self-cleavage amounted to 0.45.
As for GGCAGAGCUCAACACAGCUUGGCAACGUGGCUGUGGCUAGAUUUCC [G19U A26C C42U G44U], the figure is 0.69.
The result for GGCAGAGCUCAACACAGCCUGGCAAAGUGGCUGUGGCUAGACUCCU [G19C G44C C46U] reads 0.1; that for GGCAGAGCUCAACACAGCCUGGCAAAUUGACUGUGGCUAGACUGCG [G19C G27U G30A C46G], 0.86.
As for GGCAGAGCUCAACACAGCUUGGCAGAGUGGCUGUGGCUAGACCCCC [G19U A25G U43C G44C], the figure is 0.04; as for GGCAGAGCUCAACACAGCCUGGCAAAGUGGCUAUGGCUACACGGCC [G19C G33A G40C U43G], 0.02; as for GGCAGAGCUCAACACAGCUUGGGAAUGUGGCUGUGGAUAGACUGCU [G19U C23G A26U C37A C46U], 0.02.
As for GGCAGAGCUCAACACAGCUUGGCAGAGUAGCUGUGGAUCGACUGCC [G19U A25G G29A C37A A39C], the self-cleavage amounted to 0.05.
As for GGCAGAGCUCAACACAGCCUGCCAAAGUAGCUUUGGCUAGACUGCC [G19C G22C G29A G33U], the figure is 0.05; as for GGCAGAGCUCAACACAGCCUGGCAAAGUCUCUGUGGCUAGACUUCC [G19C G29C G30U G44U], 0.24; as for GGCAGAGCUCAACACAGCCUGGCAAAGUGACUGUGCCAAGACUGCC [G19C G30A G36C U38A], 0.04.
As for GGCAGAGCUCAACACAGCUUGGCAUAGUGGCUGUGGCUAUACUGGC [G19U A25U G40U C45G], the figure is 0.09; as for GGCAGAGCUCAACACAGCCAGUCAAUGUGGCUAUGGCUAGCCUGCC [G19C U20A G22U A26U G33A A41C], 0.01.
As for GGCAGAGCUCAACACAGCCUGGCAAAGUGACUGCGCCUAGACUGCC [G19C G30A U34C G36C], the figure is 0.05.
In the case of GGCAGAGCUCAACACAGCCUGGCAAAUUAGCUGUGGCUAGACUGCC [G19C G27U G29A], the self-cleavage was 1.37.
The result for GGCAGAGCUCAACACAGCCUUGCAAAGUGGCGGUGGCUGGACUGCC [G19C G21U U32G A39G] reads 0.03.
As for GGCAGAGCUCAACACAGCCUGGCAAAGUGGCAGUGGCUGGACUGCC [G19C U32A A39G], the figure is 0.07.
Regarding GGCAGAGCUCAACACAGCCUGGCAAAGUGGCCGUGGGUAGACUGCC [G19C U32C C37G], the self-cleavage is 0.03.
Regarding GGCAGAGCUCAACACAGCCGGGCAAAAUGGCUGUGGCUAGACUGCC [G19C U20G G27A], the self-cleavage was determined as 0.38.
Turning to GGCAGAGCUCAACACAGCCUGACAAAGUGGCUGUGGCUAUACUGCU [G19C G22A G40U C46U], the self-cleavage stood at 0.01.
With GGCAGAGCUCAACACAGCUUGGCAGAGUGGGUGUGGCUAGACUGCC [G19U A25G C31G], the self-cleavage is 0.01.
As for GGCAGAGCUCAACACAGCUUGGCACAGUGGCGGUGGCUAGACUGCC [G19U A25C U32G], the figure is 0.18.
As for GGCAGAGCUCAACACAGCUUGGAAAAGUGGCUGUGGUUUGACUGCC [G19U C23A C37U A39U], the figure is 0.03.
Take GGCAGAGCUCAACACAGCUUCGCAAAGUGGCUGCGGCUAGACUGCC [G19U G21C U34C]: the self-cleavage was 0.2.
GGCAGAGCUCAACACAGCCUGGCAAAGUGGCUGUGGCGAGACUGGC [G19C U38G C45G]: the self-cleavage is 0.09.
As for GGCAGAGCUCAACACAGCUUGGCUAAGUGGCUGUUGCAAGACUGCC [G19U A24U G35U U38A], the figure is 0.27; as for GGCAGAGCUCAACACAGCCCGGCAAAAUGGCUGGGGCUAGACUGGC [G19C U20C G27A U34G C45G], 0.03.
Consider GGCAGAGCUCAACACAGCCUGCAAAAUUGGCUGGGACUAGACUGCU [G19C G22C C23A G27U U34G G36A C46U], for which the self-cleavage worked out at 0.14.
For GGCAGAGCUCAACACAGCUUGGAAACGUGGCUGUGGCUAGACUGCC [G19U C23A A26C], the self-cleavage is 2.63.
For the variant GGCAGAGCUCAACACAGCUUGGCAAGUUGGCUGUGGCUAGACUGCC [G19U A26G G27U], the self-cleavage worked out at 2.26.
The result for GGCAGAGCUCAACACAGCUUGGCAAGGUGUCUAUGGCUAGACUGCC [G19U A26G G30U G33A] reads 0.17; that for GGCAGAGCUCAACACAGCCUGACAUAGUGGCUGUGGCUAGACUGCC [G19C G22A A25U], 0.36.
The result for GGCAGAGCUCAACACAGCUUGGCCAAGUGGCUGUGGCUAGACAGCC [G19U A24C U43A] reads 0.02; that for GGCAGAGCUCAACACAGCUUGGCAUAGUGGCUAUGGCUAGACUGCC [G19U A25U G33A], 0.08; that for GGCAGAGCUCAACACAGCCUGGCAAAGAGGCGGUGGCUAGACUGCC [G19C U28A U32G], 0.15.
On to GGCAGAGCUCAACACAGCCUGGCAAAGUGACUGUGGCUUGACUUCC [G19C G30A A39U G44U], for which the self-cleavage was found to be 0.04.
Regarding GGCAGAGCUCAACACAGCCUGCCAAAGUGGCUGUGGCUAGCCUGCC [G19C G22C A41C], the self-cleavage is 0.04.
The result for GGCAGAGCUCAACACAGCCUGGCAAAGUGGCUGUGGCUACACUGAC [G19C G40C C45A] reads 0.
As to GGCAGAGCUCAACACAGCCACGCAAAGUGGCUGGGGCUAGACUGCC [G19C U20A G21C U34G], the self-cleavage amounted to 0.11.
The result for GGCAGAGCUCAACACAGCUUGGCAAAGUGGCUGUGGAUAGGCUGCC [G19U C37A A41G] reads 0.02; that for GGCAGAGCUCAACACAGCUUGGCGAAGUGGCCGUGGCUAGACGGCA [G19U A24G U32C U43G C46A], 0.92; that for GGCAGAGCUCAACACAGCCUUGCAAAGUGGCUCUGGCUCGACUGCC [G19C G21U G33C A39C], 0.12.
In the case of GGCAGAGCUCAACACAGCUUGGCAAAGUGGCUGUGGAUAGAUUGCC [G19U C37A C42U], the self-cleavage was found to be 0.03.
The result for GGCAGAGCUCAACACAGCCUGGCAAAGUGGCUGAGGCUAGAGUGCC [G19C U34A C42G] reads 0.04; that for GGCAGAGCUCAACACAGCCUGGCAAAGUGGCUUAGGCUAGACUGCC [G19C G33U U34A], 0.06; that for GGCAGAGCUCAACACAGCUUGACAAAGGGGCUGUGGCUAGACUGCC [G19U G22A U28G], 0.18.
As to GGCAGAGCUCAACACAGCCUGGCAAAGUGCCUGUGGCUAGACAGCU [G19C G30C U43A C46U], the self-cleavage was found to be 0.15.
The result for GGCAGAGCUCAACACAGCUUGGCAAAGUGGAUGUGGCUAUAUUGCC [G19U C31A G40U C42U] reads 0.02.
As for GGCAGAGCUCAACACAGCCUGGCAAAUUGGCUGUGGCUCGACUGCC [G19C G27U A39C], the figure is 0.04; as for GGCAGAGCUCAACACAGCCUGGCAAAGCAGCUGUGGCUAGACUGCU [G19C U28C G29A C46U], 2.95.
As for GGCAGAGCUCAACACAGCUUGGCAAAGUGGUUGUGGCUAGACUGCA [G19U C31U C46A], the figure is 0.39; as for GGCAGAGCUCAACACAGCUUGGUAUAGUGGCUGUGGCUAGACUGCC [G19U C23U A25U], 0.45.
As to GGCAGAGCUCAACACAGCUUAGCAAAGUGGCUGUGGGUAGACUUCC [G19U G21A C37G G44U], the self-cleavage turned out to be 0.02.
As for GGCAGAGCUCAACACAGCUUCGCAAAGUCGCUGUGGCUAGACUGCC [G19U G21C G29C], the figure is 0.76; as for GGCAGAGCUCAACACAGCCUGGCAAAGUGCCUGUGGCUAGAAUGCC [G19C G30C C42A], 0.3.
